# The whole screen tested about 110,000 compounds, of which about 230 (0.21%) showed an effect of 50% or more. This is one part of the list.
# Target: DPAP1 (Plasmodium falciparum, UniProt Q8IIJ9)
# Experiment: primary screen, percent inhibition; read by cleavage of a fluorogenic dipeptide substrate; higher = more effect of the substance
# Set-up: species or system P. falciparum D10 trophozoite lysates; single well
# 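Note: 30 min substrate incubation versus DMSO and 10 µM JCP410 controls.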
# Sequence of DPAP1 (Q8IIJ9 whole entry, looked up): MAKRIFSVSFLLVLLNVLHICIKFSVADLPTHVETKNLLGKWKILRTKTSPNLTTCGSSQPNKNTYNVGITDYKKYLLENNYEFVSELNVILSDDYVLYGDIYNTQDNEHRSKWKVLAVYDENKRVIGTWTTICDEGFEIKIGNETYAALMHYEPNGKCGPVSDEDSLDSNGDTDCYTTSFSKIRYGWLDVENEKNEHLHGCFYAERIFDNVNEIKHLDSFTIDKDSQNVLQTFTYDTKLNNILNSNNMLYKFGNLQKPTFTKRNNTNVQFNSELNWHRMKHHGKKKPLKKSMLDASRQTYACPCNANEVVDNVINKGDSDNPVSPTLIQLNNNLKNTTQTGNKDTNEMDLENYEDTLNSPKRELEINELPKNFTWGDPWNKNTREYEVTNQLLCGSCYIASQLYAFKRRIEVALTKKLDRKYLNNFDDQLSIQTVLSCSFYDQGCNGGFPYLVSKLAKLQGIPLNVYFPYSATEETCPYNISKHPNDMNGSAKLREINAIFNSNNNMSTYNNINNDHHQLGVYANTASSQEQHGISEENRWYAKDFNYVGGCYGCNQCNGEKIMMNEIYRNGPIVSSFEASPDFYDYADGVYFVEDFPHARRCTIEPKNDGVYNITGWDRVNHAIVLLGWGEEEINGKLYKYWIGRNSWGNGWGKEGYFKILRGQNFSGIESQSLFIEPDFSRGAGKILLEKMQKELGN
row,Structure (SMILES),% Inhibition @ 10 uM [%]
1,CCc1cc(=O)oc2cc(OCC(=O)N(CC)CC)c(Cl)cc12,3.47
2,CCCOc1cccc(C(=O)Nc2ccc(CN3CCOCC3)cc2)c1,-0.0272
3,COC(=O)C1=C(C)N(C)C(=O)NC1c1ccc(C)cc1 (stereo not shown),4.7
4,O=C(O)c1cn(Cc2ccccc2)c2ccccc2c1=O,3.91
5,CC1=C(C(=O)OCCc2ccccc2)C(c2ccccc2OC(C)C)CC(=O)N1 (stereo not shown),4.86
6,CCCCNC(=O)c1ccc(CS(=O)(=O)c2ccc(C)cc2)o1,-5.19
7,CC(C)C[C@H](NC(=O)OCc1ccccc1)C(=O)N[C@H](C#N)Cc1ccccc1,0.174
8,Cc1ccc(C(=O)Nc2c3c(nn2-c2ccc(F)cc2)CS(=O)(=O)C3)cc1C,8.19
9,NS(=O)(=O)c1ccc(CCNC(=O)C2=Cc3sc4c(c3CS2)CCCC4)cc1,12
10,Cc1cccc(-c2nnc3sc(NC(=O)COc4ccccc4)nn23)c1,1.68
11,O=C(Nc1cccnc1Cl)c1cnn2c1NC(c1ccccc1)CC2C(F)(F)F (stereo not shown),-4.75
12,CC(=O)NCCNC(=O)c1ccc2c(c1)nc(S)n1c3ccccc3nc21,1.58
13,CSc1nc(-c2cccc(Cl)c2)nc2c1Cc1c(CO)cnc(C)c1O2,6.1
14,COc1cccc(CN2CCN(Cc3cccc(F)c3)CC2)c1,2.54
15,CCc1c(C)nc2ccc(C)cc2c1Cl,-5.34
16,N#C/C(=C\c1ccc(Br)o1)c1nc(-c2ccc(Br)cc2)cs1,-4.02
17,COc1ccc(/C=C2\Cc3ccccc3C2=O)cc1Cn1nc(C)cc1C,-4.65
18,Cc1ccsc1-c1ncnn1-c1sc2c(c1C#N)CCCC2,-1.82
19,COc1ccc(CN2CCN(Cc3ccccc3Br)CC2)cc1OC,0.0974
20,CCC(NC(=O)c1cc(S(=O)(=O)N(C)C)c(Cl)cc1Cl)C12CC3CC(CC(C3)C1)C2 (stereo not shown),-0.703
21,CCOc1cc(CN2CCC3(C=Cc4ccccc43)CC2)ccc1OC,-3.42
22,O=c1c2oc3ccccc3c2ncn1Cc1ccccc1,-4.18
23,Cn1c(=O)[nH]c(O)c(/C=C/c2ccc3ccccc3n2)c1=O,3.6
24,C=C(C)c1cccc(C(C)(C)NC(=O)N2CCN(C(=O)OCC)CC2)c1,-5.62
25,O=C(NCc1ccc(F)cc1)c1cc(-c2ccc(O)cc2)on1,-2.65
26,Cc1ccc(N2CCN(CC(=O)Nc3ccc(Br)cc3)CC2)cc1Cl,-4.68

row,Structure (SMILES),% Inhibition @ 10 uM [%]
1,COc1ccc(CNCc2cc(C)c(OC)cc2C)cc1,-3.32
2,O=C(Nc1ccc(F)cc1F)C1CC(=O)N(c2ccc(Br)cc2)C1 (stereo not shown),9.01
3,COc1ccc(-c2c(Cc3ccccc3)nn3c(O)cc(-c4ccccc4)nc23)cc1,3.42
4,COc1ccc(/C=C\C(=O)NCC(=O)O)cc1,-2.72
5,CC(C)(C)c1cc(-c2nc3ccccc3[nH]2)[nH]n1,4.6
6,CC(=O)NS(=O)(=O)c1ccc(N2C(=O)c3ccccc3C2=O)cc1,0.331
7,Cc1ccc2c(c1)/C(=C1/SC(Nc3ccc(Cl)cc3)=NC1=O)C(=O)N2C,5.4
8,Cc1nc(C(Cl)(Cl)Cl)nc(N)c1C(=O)c1ccccc1,-1.82
9,CCOC(=O)N1CCC(NCc2c(C(=O)O)n(Cc3ccc(C)cc3)c3ccccc23)CC1,6.59
10,C=CCc1ccc(OCCCCN2CCC(C)CC2)c(OC)c1,-6.78
11,Cc1ccc(C2=NN=C(NC(=O)CSc3nnnn3-c3ccccc3)SC2)cc1,4.3
12,Cc1ccc(-n2nc3c(c2NC(=O)c2ccc(Cl)cc2Cl)CS(=O)(=O)C3)cc1,10.3
13,Cc1nonc1NC(=O)N1CCCCC1,1.25
14,COc1ccc(-c2nc(CS(=O)(=O)CC(=O)NCc3ccc(Cl)cc3)c(C)o2)cc1,-5.58
15,COc1ccccc1CCNC(=O)Cc1c(C)c2cc3c(C)coc3c(C)c2oc1=O,2.54
16,COc1ccccc1NC(=O)C1CC(=O)N(C)/C(=N/c2ccc(Cl)cc2)S1 (stereo not shown),-3.25
17,Cc1cc(C)nc(SCC(=O)c2ccc(F)cc2)n1,1.4
18,Nc1n[nH]c(CCCO)n1,0.221
19,Cc1cccc(Cn2nc(C)c(NC(=O)c3ccco3)c2C)c1,-0.222
20,CCCSCCCn1cnc2c3cc(C)ccc3nc-2c1O,10.6
21,Cn1c(SCC(=O)NCc2cccs2)nnc1-c1ccco1,-0.403
22,CCOc1cc(C(=O)NC2CC2)cc(OCC)c1OCC,6.98
23,CCOC(=O)c1c(-c2ccccc2)csc1NC(=O)c1cc(-c2ccc(O)cc2)on1,-2.65
24,C=CCSc1nc2c(c(=O)n1-c1ccc(C)cc1)C1(CCCC1)Cc1ccccc1-2,-5.23
25,COc1ccc(CN2CCN(S(=O)(=O)c3ccc4ccccc4c3)CC2)cc1Br,0.146
26,CCOC(=O)C1CCCN(Cc2ccccc2C(F)(F)F)C1 (stereo not shown),-1.77

row,Structure (SMILES),% Inhibition @ 10 uM [%]
1,O=C1CCCC2=C1C(c1ccco1)Nc1ccc3ccccc3c12 (stereo not shown),3.05
2,CCCN1CCN(C(=O)Cn2c(C)cc3ccccc3c2=O)CC1,1.91
3,CCOC(=O)C1=C(CNCCc2ccc(Cl)cc2)NC(=O)NC1c1ccc2c(c1)OCO2 (stereo not shown),-2.19
4,Cc1ccc(C(C)(C)CCN2CCCN(C)CC2)o1,-2.97
5,Brc1ccc(C2=NN=C(c3ccccc3)c3ccccc3N2)cc1,-2.35
6,Cc1ccc(C(=O)Nc2ccccn2)cc1C,-1.82
7,Cc1sc(NC(=O)CN2C(=O)c3ccccc3C2=O)nc1-c1ccccc1,0.146
8,Cc1[nH]cnc1CN1CCCCC1CO (stereo not shown),-7.17
9,COc1c(C(=O)Nc2ccc(C(C)=O)cc2)ccc2ccccc12,-2.58
10,O=C(NCc1noc2ccccc12)N1CCC(c2ccccc2)C1 (stereo not shown),3.54
11,O=C(NCCO)C(C(=O)NCCO)C1CCS(=O)(=O)C1 (stereo not shown),-5.33
12,CCOC(=O)c1ccc(NC(=O)c2ccc(Cl)cc2)cc1,-0.274
13,COc1ccc2c(c1)CCc1c(C(=O)Nc3cnn(Cc4ccc(F)cc4)c3)noc1-2,-5.09
14,O=S1(=O)CC(O)C(N2CCOCC2)C1 (stereo not shown),-9.6
15,Cc1cccc(C(=O)Nc2ccccc2O)c1,-5.32
16,CCN(CC)CCCNC(=O)c1cc(-c2ccc(F)cc2)[nH]c1C,1.39
17,SC1=NC(c2ccc(Cl)cc2)c2ccccc2C1 (stereo not shown),-3.14
18,O=C(NC1CCCCCC1)c1ccccn1,2.62
19,CCOC(=O)C1CCCN(Cc2cccc(Br)c2)C1 (stereo not shown),-1.92
20,Cc1c(C)n(C)c2ccc(C(=O)NC3CCN(Cc4ccccc4)CC3)cc12,-3.95
21,C/C(=N\C1CCCCC1)c1sc2ccccc2c1O,18.5
22,CCOc1ccc(C2C(C(=O)OC)=CN(Cc3ccc(F)cc3)C=C2C(=O)OC)cc1OC,0.219
23,O=C(NC(=S)Nc1ccc(N2CCOCC2)cc1)c1ccccc1,3.05
24,Cc1ccc(-c2c(C(=O)N3CCN(C)CC3)oc(=O)c3ccccc23)cc1,1.9
25,CCC(CC)CC(NC(=O)c1ccc(C(C)(C)C)cc1)C(=O)N[C@@H](CC)C(=O)c1nc2ccccc2o1 (stereo partly shown),-6.46
26,NC(=O)CCCn1c(-c2nonc2N)nc2ccccc21,-7.14

row,Structure (SMILES),% Inhibition @ 10 uM [%]
1,CCOc1ccc(C(=O)c2cc3ccc(O)cc3oc2=O)cc1,-4.97
2,N#CC1=C(SCc2ccccc2)SC(c2ccc(C(=O)O)cc2)NC1=O (stereo not shown),0.0289
3,COc1ccccc1/C=C1\SC(=O)N(CCC(=O)Nc2ccccc2)C1=O,2.69
4,Cc1oc(-c2ccc(Cl)cc2)nc1CSc1nc2ncccc2o1,2.14
5,CC(C)Cn1cc(NC(=O)Nc2nc3ccccc3s2)c2ccccc2c1=O,2.09
6,O=C(C1=C(O)C(=O)N(CCCNCCO)C1c1ccccc1)c1ccccc1 (stereo not shown),-0.92
7,CCOc1cc(Br)c(C(C)NC(=O)c2cccnc2)cc1OCC (stereo not shown),2.17
8,C=CCN1C(=O)S/C(=C/c2ccc(OC)c(OCC)c2)C1=O,2.6
9,COc1cc(CNCc2cccnc2)ccc1OCc1ccc(F)cc1,-4.12
10,Oc1ccc2ccccc2c1C(c1ccc(Br)cc1)N1CCCCC1 (stereo not shown),3.32
11,Cc1c(CN2CCN(CCO)CC2)c(=O)n(-c2ccccc2)n1C,-1.5
12,CCNC(=O)c1c(NC(=O)C(C)Oc2ccc(F)cc2)sc2c1CCCC2 (stereo not shown),-9.77
13,CC1=C/C(=C/c2ccco2)C(=O)O1,16.1
14,CC1CCN(Cc2nc3c(c(=O)n(C)c(=O)n3C)n2Cc2ccccc2Cl)CC1,-2.29
15,Cc1ccc(/C=C(/C#N)c2nc(-c3cc4c(ccc5ccccc54)oc3=O)cs2)o1,5.94
16,O=C1Nc2ccc3ccccc3c2C(c2ccccc2)N1 (stereo not shown),-3.52
17,CCOC(=O)c1sc(C)c2c(O)nc(C)nc12,-3.09
18,CCN1CCCC1CNC(=O)C1CCN(c2nc3ccccc3n3cccc23)CC1 (stereo not shown),-1.97
19,O=C(Nc1nc(=O)c2ccccc2s1)c1ccccc1,0.673
20,O=C(O)CCC(=O)Nc1ccc(-c2nc3ccccc3o2)cc1,0.878
21,COc1ccc(CNCCC(c2ccc3c(c2)OCO3)c2ccccc2OC)cc1OC (stereo not shown),-9.83
22,CC/N=C1\S/C(=C\c2cccn2-c2cccc(C(=O)O)c2)C(=O)N1CC,1.98
23,COCCCNc1nc2c(c(=O)[nH]c(=O)n2C)n1CCCc1ccccc1,-5.08
24,Cc1ccc2c(c1)-c1c(cnn1CC(=O)NCCCN1CCOCC1)CO2,-0.405
25,Cc1nc2cc(-c3ccccc3)nn2c(C)c1CC(=O)NCC(C)c1ccccc1 (stereo not shown),-2.45

# — paper PMC6919601, “Identification of Plasmodium dipeptidyl aminopeptidase allosteric inhibitors by high throughput screening” (PLoS ONE, 2019)
